The BET-seq Pho4 binding data (Le et al. 2018)
The list shows a part of the results. Values were computed here from the reads of four pooled replicates and scatter widely.

Molecular target: T1, Pho4 (S. cerevisiae) (UniProt P07270)
T1 sequence: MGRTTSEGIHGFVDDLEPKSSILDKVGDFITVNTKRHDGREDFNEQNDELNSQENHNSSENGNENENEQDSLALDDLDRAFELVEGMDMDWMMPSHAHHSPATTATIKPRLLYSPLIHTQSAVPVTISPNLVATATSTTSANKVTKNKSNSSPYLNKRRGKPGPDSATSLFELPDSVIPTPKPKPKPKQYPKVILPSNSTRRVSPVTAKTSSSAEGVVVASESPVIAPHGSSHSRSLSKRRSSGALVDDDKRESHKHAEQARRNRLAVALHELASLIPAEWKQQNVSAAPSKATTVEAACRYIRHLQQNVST
Assay: relative binding free energy (BET-seq); higher = weaker binding
Conditions: reference: library average

| Sequence | relative binding free energy |
| --- | --- |
| TGTGTCACGTGCTTGA | 0.01 kcal/mol |
| AGTAGCACGTGAGAAG | 0.13 kcal/mol |
| AGAGGCACGTGGGTGC | -0.29 kcal/mol |
| GTAAGCACGTGGTCAG | -0.11 kcal/mol |
| GTAGGCACGTGGTAGC | -0.09 kcal/mol |
| TGAGACACGTGGGAGA | 0.02 kcal/mol |
| CGAGGCACGTGAGTAG | 0.16 kcal/mol |
| ATTGTCACGTGGAGAA | -0.08 kcal/mol |
| GTGTACACGTGGCGGT | 0.06 kcal/mol |
| TAGGGCACGTGCGATT | -0.04 kcal/mol |
| TTTTACACGTGGATGC | 0.26 kcal/mol |
| TGAGCCACGTGTGGGT | -0.14 kcal/mol |
| TTGGTCACGTGTCGTG | 0.08 kcal/mol |
| GGGTCCACGTGTAAGT | 0.1 kcal/mol |
| TTTCTCACGTGTGTGA | 0.26 kcal/mol |
| TGGTGCACGTGCCGGA | -0.11 kcal/mol |
| GTAGACACGTGATTGG | 0.18 kcal/mol |
| GGGGTCACGTGGTAAG | 0.17 kcal/mol |
| TCGGTCACGTGGCGGT | 0.07 kcal/mol |
| GTCAGCACGTGCTTGT | 0 kcal/mol |
| TAGGGCACGTGGTTTG | -0.13 kcal/mol |

| Sequence | relative binding free energy |
| --- | --- |
| AGTATCACGTGATGTC | 0.36 kcal/mol |
| AACGTCACGTGGTATG | 0 kcal/mol |
| GTTGTCACGTGTTTTA | 0.25 kcal/mol |
| GAGCTCACGTGTTTGG | 0.22 kcal/mol |
| TTTATCACGTGGAGGA | 0.01 kcal/mol |
| CAGTGCACGTGCTGGT | -0.08 kcal/mol |
| TGGACCACGTGGTATT | -0.06 kcal/mol |
| TGCAACACGTGGAGTT | 0.07 kcal/mol |
| GTGGGCACGTGAGCGG | 0.14 kcal/mol |
| GCTTTCACGTGAGTTT | 0.42 kcal/mol |
| GCAGGCACGTGCGTGG | -0.21 kcal/mol |
| AGTCACACGTGGAGTT | 0.06 kcal/mol |
| GTGAGCACGTGGGCAA | -0.2 kcal/mol |
| TTCGGCACGTGGGGGT | -0.17 kcal/mol |
| ATGTGCACGTGTTTTA | -0.03 kcal/mol |
| TGAGGCACGTGCAGAT | -0.15 kcal/mol |
| TGGGCCACGTGTTAGA | 0 kcal/mol |
| GTATGCACGTGTCTTA | -0.05 kcal/mol |
| TGATTCACGTGTAAGT | 0.15 kcal/mol |
| GTATACACGTGGGGAT | 0.03 kcal/mol |
| AGTGTCACGTGGTAAG | 0.06 kcal/mol |

| Sequence | relative binding free energy |
| --- | --- |
| TAATTCACGTGCTGTT | 0.32 kcal/mol |
| AGGGCCACGTGGGTGA | -0.2 kcal/mol |
| TCTGACACGTGCGTTT | 0.07 kcal/mol |
| GGGATCACGTGGGAGT | 0.11 kcal/mol |
| TTAGTCACGTGTTGTT | 0.13 kcal/mol |
| ACATTCACGTGGGGAG | 0.29 kcal/mol |
| ACAGGCACGTGCTGTG | -0.1 kcal/mol |
| GGTGCCACGTGGTTTA | -0.05 kcal/mol |
| TGATGCACGTGGCGTG | -0.16 kcal/mol |
| TGTGGCACGTGCGGAC | -0.19 kcal/mol |
| GGTTGCACGTGTTGAA | 0.1 kcal/mol |
| TTGCTCACGTGAGTAT | 0.41 kcal/mol |
| TGCTTCACGTGGAGGT | 0.12 kcal/mol |
| TGTTTCACGTGATAAC | 0.33 kcal/mol |
| GAATTCACGTGGGTTG | 0.3 kcal/mol |
| GTATGCACGTGGTAGT | -0.03 kcal/mol |
| GGGTGCACGTGTAGTG | 0.16 kcal/mol |
| TGTTTCACGTGCGAGT | 0.23 kcal/mol |
| GAGGGCACGTGGTGGA | 0.01 kcal/mol |
| CGGTTCACGTGGGCGC | 0.28 kcal/mol |
| ATTTGCACGTGTGTGA | 0.04 kcal/mol |
